Data as given in PubChem BioAssay AID1963576 (National Center for Advancing Translational Sciences (NCATS), 2024).
In all, about 46,000 compounds went through this assay and about 60 (0.1%) were called active. About 3% were inconclusive and are not listed. The call rests on the fitted dose curve; in most records, active means well fitted inhibition curve with a large enough effect; inconclusive means small, poorly fitted or top-dose-only effect; inactive means no such curve, though single readings can be large or run the other way. The list shows a part of the results.

assay: Primary qHTS assay for Inhibitors of ovarian cancer metastasis using an organotypic tumor microenvironment (TME) model.; further: nearly all actives have a fitted effect of over 65% in size;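 on activity change, negative = inhibition: plate controls were DMSO wells for no effect and tomatine positive control wells for full effect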; details: SKOV3ip1-GFP adhesion/invasion on 3D omental model, fluorescence; series mostly up to 45.8 µM; activity change, negative = inhibition: at the top concentration
Summary of the method: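 Adhesion/invasion was scored as fixed GFP-labeled SKOV3ip1 cell counts (488/509 nm), normalized to DMSO and tomatine controls. Cancer cells in serum-free medium, with four compound doses (0.36-46 umol/L), sat 2 hr at RT then 16 hr at 37 C on a 48 hr fibroblast/mesothelial/ECM culture.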

Activity change, negative = inhibition, inactive:
O=C(NCC1CCN(Cc2cccc(Cl)c2)CC1)c1cc2ccc3cccnc3c2[nH]1 -1.21%
Cc1ccc(C)c(N2CCN(C(=O)CCn3c(=O)c4cccn4c4cccnc43)CC2)c1 -6.59%
COc1ccccc1CNC(=O)Cn1c(=O)oc2cc(S(=O)(=O)NCc3ccccc3)ccc21 -7.84%
CCN(Cc1ccccc1)C(=O)CN1C(=O)COc2ccc(S(=O)(=O)N(CC)CC)cc21 36.9%
Cc1cc(C)c2c(CC(=O)Nc3ccc(S(=O)(=O)Nc4ncccn4)cc3)coc2c1 16.4%
COc1ccc(NC(=O)CN(C)S(=O)(=O)c2cnc[nH]2)cc1Cl 18.4%
Cc1ccc(-c2[nH]c(-c3ccccc3)nc2SCC(=O)NCC2CCCO2)cc1 (configuration not stated) -12.9%
Cn1c2ccccc2c2c3c(c4c5ccccc5n(CCC#N)c4c21)CNC3=O 7.46%
CCc1cccc(C)c1NC(=O)Cn1ccn(Cc2ccc(Cl)cc2)c(=O)c1=O -2.34%
COc1ccc(-c2noc(COc3ccc(Br)cc3C)n2)cc1OC -4.74%
O=C(O)c1ccc(NC(=O)c2cn(-c3ccccc3)nc2-c2ccc(Br)cc2)cc1 -3.36%
Cc1ccc(OCC(=O)Nc2cccc(C(=O)OCc3cc(=O)n4nc(C)sc4n3)c2)cc1 -1.63%
CCC(O)c1cc2c(cc1NC(=O)c1ccccc1F)OCCO2 (configuration not stated) -5.23%
O=C(CC1N=C2c3ccccc3N=C(SCc3cccc(F)c3)N2C1=O)NCc1ccc2c(c1)OCO2 (configuration not stated) -12.7%
Cc1ccc2c(c1C)NC(=O)CC2c1ccc(Cl)cc1Cl (configuration not stated) 4.95%
Cc1ccc2nc(Cl)c3cc(C(=O)NC4CCC(C)CC4)sc3c2c1 (configuration not stated) 0.265%
Cc1ccc(-c2cc(C(=O)Oc3ccccc3Cl)no2)cc1C 8.69%
CCc1ccc(C(=O)Nc2cc(CN3CCN(C)CC3)cc(C(F)(F)F)c2)cc1C#Cc1cnc2ccnn2c1 1.68%
COc1cccc(CNC(=O)C(=O)Nc2ccc3nc4n(c(=O)c3c2)CCCCC4)c1 9.69%
CS(=O)(=O)N1CCCc2cc(C(=O)Nc3cccc(C(F)(F)F)c3)ccc21 -25.1%
COc1ccc(CCNC(=O)c2ccc3c(Cl)c4c(nc3c2)CCCC4)c(OC)c1 3.38%
COC(=O)c1cnc(N2CCN(c3ccc(F)cc3)CC2)c2ccccc12 -1.57%
Cc1cccc(OCC(=O)N(Cc2ccccc2)c2ccccn2)c1 -27.5%
COC(=O)c1ccc(CSc2nc3c(c(=O)[nH]2)CCC3)cc1 -2.35%
COc1cc(-c2nc(-c3cccc(Cl)c3)c(-c3ccccc3)[nH]2)cc(OC)c1OC -20.6%
CC1CCC(NC(=O)c2ccc(CS(=O)(=O)c3c(Cl)cccc3Cl)o2)CC1 (configuration not stated) 3.45%
Cc1ccc(NC(=O)Cn2c(=O)n(Cc3ccc4c(c3)OCO4)c(=O)c3ccccc32)c(C)c1 5.23%
CCc1ccccc1NC(=O)Cn1c(=O)n(Cc2ccco2)c(=O)c2sc3ccccc3c21 -6.46%
O=C(NCCS(=O)(=O)N1CCN(c2ccc(F)cc2)CC1)C1CC(=O)N(c2ccc(F)cc2)C1 (configuration not stated) 2.46%
COc1ccc(CCNC(=O)CCSCc2ccccc2Cl)cc1OC -1.18%
CCCCc1ccc(NC(=O)CSc2nc3ccccc3nc2N2CCOCC2)cc1 4.7%
O=C(Nc1cc(Cl)cc(Cl)c1)c1ccc(F)c(S(=O)(=O)NC2CCCCC2)c1 -8.08%
COc1ccc2nc(NC(=O)c3nc(SCc4ccccc4F)ncc3Cl)sc2c1 2.51%
Cc1cc(C)n(-c2nc3cc(Cl)ccc3nc2Nc2ccc(CC(=O)O)cc2)n1 2.6%
CCNC(=O)C1CCN(c2nnc(C)c3c(C)n(-c4ccc(OC)cc4)nc23)CC1 -2.28%
Cc1cccc(NC(c2ccccc2C)c2ccc3ccc(C)nc3c2O)n1 (configuration not stated) 13.2%
COC(=O)c1c(-c2cccs2)csc1NC(=O)c1ccc(OC)c(OC)c1 -3.84%
COc1ccc(S(=O)(=O)c2c(SC)nn(CC(=O)Nc3cccc(C)c3C)c2N)cc1 0.319%
Cc1ccc(-c2nc(CS(=O)(=O)CC(=O)NCCc3ccccc3)c(C)o2)cc1 -1.94%
Cc1ccc2c(c1)NC(=O)c1cccnc1O2 -4.93%
CCn1cc(C(=O)NCc2ccc(C)cc2)c(=O)c2cc(S(=O)(=O)N(C)C3CCCCC3)ccc21 -4.61%
CCC(C)NC(=O)CSc1nc2c(sc3ccccc32)c(=O)n1CCc1ccc(OC)c(OC)c1 (configuration not stated) 7.77%
O=C(Nc1ccc(OCc2cc(=O)n3ccccc3n2)cc1)c1ccccc1Cl -11.5%
CCC(C)Nc1oc(-c2ccc(COc3ccc(Cl)cc3)o2)nc1C#N (configuration not stated) 0.735%

outcome, inactive:
COc1ccccc1Nc1nc(-c2ccccc2Cl)c2cc(Br)ccc2n1
CC1=C(C(=O)Nc2ccc(Cl)cc2)C(C(C)C)n2nc(SCc3ccc(Cl)cc3)nc2N1 (configuration not stated)
O=C(Cn1nc(C(F)(F)F)c2c1CCC2)Nc1ccc(Cl)cc1
COc1ccc(OC)c(CCNC(=O)C2=C(C)C(=O)OC23CCC(C)CC3)c1 (configuration not stated)
c1ccc(-c2nnc(CN3CCN(c4ccccc4)CC3)o2)cc1
COc1ccc(C2C(=O)N(C3CCCCCC3)CC(=O)N2CCC2=CCCCC2)cc1 (configuration not stated)
Cc1ccc2nc(N3CCN(c4cccc(C)c4C)CC3)c3nncn3c2c1
Cc1ccc(C)c(N2CCN(S(=O)(=O)c3cnc(N)nc3)CC2)c1
CC(C)c1ccc2oc(-c3ccc(NC(=O)c4cc5ccccc5o4)cc3)nc2c1
COc1cccc(-c2cc(C(=O)Nc3ccn(Cc4ccc(C)cc4)n3)no2)c1
CC(C)CCn1c(=O)c2sccc2n2c(CCCC(=O)NC3CCC(C)CC3)nnc12 (configuration not stated)
CCOC(=O)c1ccc2c(c1)N(Cc1ccccc1)C(=O)c1ccccc1S2
CCCCn1c(NCc2cc(Br)ccc2O)nc2ccccc21
COc1ccccc1CNC(=O)C1CCN(S(=O)(=O)c2ccc3c(ccn3C)c2)CC1
COc1ccc(CNC(=O)Cn2nc(N3CCN(c4ccccc4)CC3)ccc2=O)c(OC)c1
CCc1ccc(CN(Cc2ccco2)C(=O)COc2ccc(Cl)c(C)c2)cc1
CCN(CC)c1nc2c(S(=O)(=O)c3cccc(Cl)c3)nnn2c2ccsc12
CC1=C(C(=O)Nc2ccccc2)C(c2ccncc2)n2nc(SCc3ccccc3F)nc2N1 (configuration not stated)
